Biological target: the molecule itself
Experiment: cell-based or functional assay

B1: neutrophil-derived properdin (natural protein, UniProt P27918 28-469, looked up)
chain: DPVLCFTQYEESSGKCKGLLGGGVSVEDCCLNTAFAYQKRSGGLCQPCRSPRWSLWSTWAPCSVTCSEGSQLRYRRCVGWNGQCSGKVAPGTLEWQLQACEDQQCCPEMGGWSGWGPWEPCSVTCSKGTRTRRRACNHPAPKCGGHCPGQAQESEACDTQQVCPTHGAWATWGPWTPCSASCHGGPHEPKETRSRKCSAPEPSQKPPGKPCPGLAYEQRRCTGLPPCPVAGGWGPWGPVSPCPVTCGLGQTMEQRTCNHPVPQHGGPFCAGDATRTHICNTAVPCPVDGEWDSWGEWSPCIRRNMKSISCQEIPGQQSRGRTCRGRKFDGHRCAGQQQDIRHCYSIQHCPLKGSWSEWSTWGLCMPPCGPNPTRARQRLCTPLLPKYPPTVSMVEGQGEKNVTFWGRPLPRCEELQGQKLVVEEKRPCLHVPACKDPEEEEL
Q: How did the “C3b deposition in the properdin functional ELISA at 300 ng/ml properdin, neutrophil-derived against donor-matched serum-derived properdin (10 donors)” value turn out when B1 was run?
A: Its value is 5 fold lower.
